# Laboratory results taken from article PMC12136788.
# The other results are listed elsewhere or left out.
# B1: chr10:33190432:33190433:-_ENSG00000150093_ENST00000302278|hu_mus|FALSE|FALSE (ssRNA)
# RNA: GGGAGUUCUACAGUCCGACGAUCUACAUUUUCCAAACCUGCAUGUGAAUAAAACCCUGGCCACAGAGCCCCAAAACUACCCUACUGUGACUAAGAUGCUGCUGCUGUGAGCUUGGUGUUGCAAAAUCCGCCUGAGUAGGAUUCCAACAGAGGAUUGAGCAUCA
# B2: chr7:150775722:150775723:-_ENSG00000164896_ENST00000297532|hu_mus|FALSE|FALSE (ssRNA)
# RNA: GGGAGUUCUACAGUCCGACGAUCUUCCUGAACCACCAGGAAAUGAGCAAUGGCUUCCAGAAGUUGGGGUUCCCGCAAGCGGUGCCGGGCCAGGUGUUGGGCCAGAAGCACCAUUACGUGAGGAGUCAGUUCUUCUGGCCUUGCCAACAGAGGAUUGAGCAUCA
# B3: chr7:141441981:141441982:+_ENSG00000106028_ENST00000265304|hu_mus|hu_hu_hu_mus_False|58_88 (ssRNA)
# RNA: GGGAGUUCUACAGUCCGACGAUCCUCAUGUCUUACAAACUGACGAAGUACCUGUAACACAGGUCUUCGAAACAUGGCUUCUAUUUUUCUUACAACCUAAUCUUUAGGCUUUUCCUAAAGGAAAGAAAGAAAAGAGAAAAAUGACAACAGAGGAUUGAGCAUCA
# B4: chr18:35732517:35732518:+_ENSMUSG00000037236_ENSMUST00000166793|mus_mus|motif|central (ssRNA)
# RNA: GGGAGUUCUACAGUCCGACGAUCUAUAGAGCACAGAUGGGGAUAACCCUUCGGUAAGAGUCCAUGGAAGUCUUCAAUAUUGCGGCUUGGAGGAGCGCCCCUCUUUUUCUCAAAGAGAGAUCUCUCUUGUAAGGGGCCAGGACCCAACAGAGGAUUGAGCAUCA
# B5: chr7:135612270:135612271:-_ENSG00000105887_ENST00000393085|hu_mus|hu_hu_hu_mus_False|38_108 (ssRNA)
# RNA: GGGAGUUCUACAGUCCGACGAUCGUUUCUGAGAUGUAUGUUAAAUAGUACUUCAGUGGAAAACAAAACUUAACCUUUUAUUAAUGCGUGUUGUACCAGAAAGCAAAAUUUUAGCUUCAUUUAUUCAAAAAUAUUAACAUUAAGCAACAGAGGAUUGAGCAUCA
# B6: 143155553_143155673_4980_3pUTR_ENSMUSG00000030275_ENSMUST00000032413|mouse|control|control (ssRNA)
# RNA: GGGAGUUCUACAGUCCGACGAUCUGGACUGAAAUUCCAGAAAUGGGGAUGUUUUGUCUGGAGCAGCUGAUAGCAUUUGUCAAACCCAAGACUGAACACUGCUGUCACUGUGGGGAAAGGCGGCUCACCACCUACUCAGAACAGCAACAGAGGAUUGAGCAUCA
# B7: chr7:151048522:151048523:+_ENSG00000013374_ENST00000566856|hu_mus|hu_hu_hu_mus_True|1_38 (ssRNA)
# RNA: GGGAGUUCUACAGUCCGACGAUCCUGUUUCUUAUUUAUUACGAUCUUGAUGUAAUUUUCUUGAAAUCCGAAAGUUUCAGCUAUUUGACACCUCAGGUCUCUGCCAGUGACAUGCAAGCGGGUCUCCAACAAGCUUUUCCUAUCCAACAGAGGAUUGAGCAUCA
# B8: chrX:103217195:103217196:+_ENSMUSG00000031231_ENSMUST00000033582|mus_hu|FALSE|FALSE (ssRNA)
# RNA: GGGAGUUCUACAGUCCGACGAUCCAUAUCUUAAUGGGUACACAGUGCUUUAAUUUGGCAUCAAUUAUGAGCUGUUUUUUAAACAAUUCAUUAUUACACCAGCUGGGAUGAUUACUGAUUCCUCCAUUCCUUUGGGGUAACUCUCAACAGAGGAUUGAGCAUCA
# B9: chr14:89338683:89338684:+_ENSG00000165533_ENST00000346301|hu_mus|FALSE|FALSE (ssRNA)
# RNA: GGGAGUUCUACAGUCCGACGAUCGUGGUUGUUGUGGACCAGGGCCAGCCUGAAGCAUUGGUGGGCCAAGUUUGUAUCUCCGAUUCCCACAGCUAUGUGCCCCAGGUUGUACCAGACAUCAGCUGCCUCUUCUUCAUUUUCAGCCAACAGAGGAUUGAGCAUCA
# B10: chr17:74040031:74040032:-_ENSG00000167881_ENST00000307877|hu_mus|FALSE|FALSE (ssRNA)
# RNA: GGGAGUUCUACAGUCCGACGAUCGUACAGGACGAGGGCUUCGCUCCACUUCUUCACCAGCACGUAAGACUGAGCAAUGAAGAAACACCUGUAAGCUUUGAACACCAGGGUCUUGAGGCUUAUCUCUUUCUGGAAGGUUCUGUCCAACAGAGGAUUGAGCAUCA
# B11: chr16:94651144:94651145:+_ENSMUSG00000040785_ENSMUST00000117648|mus_hu|motif|central (ssRNA)
# RNA: GGGAGUUCUACAGUCCGACGAUCAUUUUCUUGAAUCAAGUGGCGAAUAACAUAGUCCACUGCUUCAUUUAGAAAAUUUCUGCGGGAAAAACAGGUUGUAUAGUCUUCUGUGCUCAAAACUUUCCAAGAAAGCAAUUCUUUGAGCAACAGAGGAUUGAGCAUCA
# B12: chr12:39763582:39763583:-_ENSG00000139116_ENST00000544797|hu_mus|hu_hu_hu_mus_False|8_78 (ssRNA)
# RNA: GGGAGUUCUACAGUCCGACGAUCCUCUAGGAACUGGGCAUUCACUUUGAAUUCAGGAGCAGGAAGCCCGUUUUUAAUCGCUGAGGUCUUUUUCUCAUCAAUACUCUUGAACAGGUGUCUAACAGCACGAGAAAUAAUGCCCUGCAACAGAGGAUUGAGCAUCA
# B13: chr11:29408400:29408401:+_ENSMUSG00000032740_ENSMUST00000040182|mus_mus|FALSE|FALSE (ssRNA)
# RNA: GGGAGUUCUACAGUCCGACGAUCGUUAAAAACAUAAUCACUUUAUCUUGUAAAUGCUAUUUGCUGGAAAACCAUCUCACUAAAAAAAGUUUCAGAAAAAUGAUUUUAUCUUGGAUCCAUUUGUGAAUACCUAGUGCAGCUUAUCAACAGAGGAUUGAGCAUCA
# B14: chr2:198351390:198351391:-_ENSG00000144381_ENST00000345042|hu_hu|hu_hu_hu_mus_False|1_108 (ssRNA)
# RNA: GGGAGUUCUACAGUCCGACGAUCUCAUUCUCACUCUCCACAGAAAGGCUGCUUCUGAACUCUCAUGUGGUGACACAGCGCUACAGUCCUGAUGCUCACAGAACAGUAGAGAUGCCUCAGUGAUUUAAGUUGAAAGCAGCAGUACAACAGAGGAUUGAGCAUCA
# Target: T1, UNK ZnF1-3 (human, UniProt Q9C0B0 31-174)
# T1 sequence: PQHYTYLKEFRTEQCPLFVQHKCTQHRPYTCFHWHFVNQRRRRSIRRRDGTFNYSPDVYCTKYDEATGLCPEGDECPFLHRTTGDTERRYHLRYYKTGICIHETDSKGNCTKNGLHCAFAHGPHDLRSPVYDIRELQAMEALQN
# Assay: nsRBNS (natural sequence RNA bind-n-seq); RBNS binding buffer (assumed for nsRBNS): 25 mM Tris pH 7.5, 150 mM KCl, 3 mM MgCl2, 0.01% Triton X-100, 500 ug/ml BSA, 20 U/ml SUPERase-In, 4 C; UNK is unkempt and MSI1 is Musashi-1; names of the RNAs are library labels; protein concentration not given here; high values mean tight binding
row,Binder,binding signal [enrichment R]
1,B1,1.28
2,B2,1.07
3,B3,0.614
4,B4,0.698
5,B5,1.62
6,B6,1.33
7,B7,0.757
8,B8,0.481
9,B9,0.718
10,B10,1.24
11,B11,0.422
12,B12,1.43
13,B13,1.11
14,B14,1.11
